Common to all, as to conditions: 20 mM HEPES pH 7.9, 100 mM NaCl, 1 mM DTT, 0.2 mg/mL BSA, 0.02% Triton X-100, 2% milk, 0.4 mg/mL salmon testes DNA; 1 h; temperature not stated; high values mean tight binding; double strand, one strand shown; sequences stand for … in GCCTAGCAC…GTGCTAGGTCTTGATTCGCTTGACGCTGCTG
The target of one test is PU.1 (IVT) (UniProt P17947). Description: protein-binding microarray (PBM).
The target in test [1] is PU.1 (endogenous, THP-1 nuclear extract) (UniProt P17947). Description: nuclear extract protein-binding microarray (nextPBM).
In test [2] the target is T1, FLI1 (endogenous, THP-1 nuclear extract) (UniProt Q01543).
T1 sequence: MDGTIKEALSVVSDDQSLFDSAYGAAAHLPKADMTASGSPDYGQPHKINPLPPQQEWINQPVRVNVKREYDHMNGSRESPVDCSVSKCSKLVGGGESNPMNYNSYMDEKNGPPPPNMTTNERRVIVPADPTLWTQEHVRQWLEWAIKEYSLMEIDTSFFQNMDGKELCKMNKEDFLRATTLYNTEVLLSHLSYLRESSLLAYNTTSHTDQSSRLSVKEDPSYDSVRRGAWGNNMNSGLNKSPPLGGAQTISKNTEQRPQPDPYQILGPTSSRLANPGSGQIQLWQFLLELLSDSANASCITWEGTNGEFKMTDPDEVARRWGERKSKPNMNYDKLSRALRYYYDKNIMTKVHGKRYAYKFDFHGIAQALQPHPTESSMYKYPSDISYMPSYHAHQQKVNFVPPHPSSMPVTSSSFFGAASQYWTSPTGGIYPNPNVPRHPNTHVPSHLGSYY
The test is described as above.

The subject of test [3] is PU.1 (endogenous, THP-1 nuclear extract) + IRF8 (endogenous, THP-1 nuclear extract). The description is as above.

The results in this text go back to paper PMC6451091.

The list shows a part of the results. For some assays here: At the low end of the ranking, values are background and their order means little. For some assays here: The protein was read in a cell extract, so binding may be indirect.

Regarding ATCTGAAGTATTTACTCTCG, the binding signal with PU.1 (IVT) is 0.0171 z-score; in test [1], -0.34 z-score; in test [2], -0.527 z-score; in test [3], 0.657 z-score.

As to AGTCAGCAAACACCCACCAC, the binding signal in the test with PU.1 (IVT) was -0.75 z-score; in test [1] it was -0.435 z-score; in test [2], -1.04 z-score; in test [3], 0.293 z-score.

For the sequence ACACCCGTTCCTGTGATCTT, the binding signal with PU.1 (IVT) was -0.318 z-score; in test [1] it was 0.334 z-score; in test [2], -0.198 z-score; in test [3], 0.0844 z-score.

Regarding TCAACATCTGCGTGAAAGTC, the binding signal with PU.1 (IVT) is -0.225 z-score; in test [1], -0.451 z-score; in test [2] it was -1.07 z-score; in test [3], -0.466 z-score.

In the case of TTCACGCCATTCTCCTGCCT, the binding signal with PU.1 (IVT) was 0.0523 z-score; in test [1] it was 0.373 z-score; in test [2], 0.317 z-score; in test [3], 0.5 z-score.

On to ATAAAGATACATTCATTCTC, for which the binding signal was -0.0697 z-score in the test with PU.1 (IVT), -0.452 z-score in test [1], -0.301 z-score in test [2] and -0.74 z-score in test [3].

Turning to GTCAAGACTGCCTGAAACTG, the binding signal with PU.1 (IVT) was 0.0987 z-score; in test [1], -0.304 z-score; in test [2] it was -0.137 z-score; in test [3] it was 3.06 z-score.

With TGAAAGCCAGAGAGGGCAGG, the binding signal was -0.273 z-score with PU.1 (IVT), -0.417 z-score in test [1], -0.0299 z-score in test [2] and 0.831 z-score in test [3].

Take GTCATCTAAGGGGCCCTACG: the binding signal was -0.557 z-score in the test with PU.1 (IVT), -0.452 z-score in test [1], -1.05 z-score in test [2] and 1.08 z-score in test [3].

Regarding GCGTGTGACGCGGGGACGCC, the binding signal with PU.1 (IVT) is -0.72 z-score; in test [1] it was -0.12 z-score; in test [2] it was -0.455 z-score; in test [3], 1.16 z-score.

For AAAGACGCTGTCTAAAATAT, the binding signal is 0.0148 z-score in the test with PU.1 (IVT), -0.0468 z-score in test [1], -0.29 z-score in test [2] and -0.715 z-score in test [3].

For the sequence ACGTGGGGGAGTTAAGAGAC, the binding signal with PU.1 (IVT) is -0.228 z-score; in test [1] it was -0.172 z-score; in test [2], -0.429 z-score; in test [3], 0.44 z-score.

In the case of GAAGCCCGCCAGGGTTACCA, the binding signal was -0.642 z-score with PU.1 (IVT), -0.251 z-score in test [1], -1.4 z-score in test [2] and 0.761 z-score in test [3].

For GAGAGGACTGCGTGAAACTG, the binding signal is -0.208 z-score in the test with PU.1 (IVT), -0.498 z-score in test [1], -0.0949 z-score in test [2] and 2.57 z-score in test [3].
